# Results reported in PubChem BioAssay AID1345083 (National Center for Advancing Translational Sciences (NCATS), 2018).
# Screen size: about 94,000 compounds; about 6,200 (6.6%) were called active. The inconclusive results got no clear call from the source; some entries with a clear call stand among them for comparison. Calls follow the shape of the dose curve; as a rule, active = well fitted inhibition curve with a large enough effect; inconclusive = small, poorly fitted or top-dose-only effect; inactive = flat fitted curve, though single readings scatter. Where the call is inconclusive, the potency comes from a doubtful curve fit.
# Assay: Cytotoxic Profiling in HEK 293 Cell Line of Diverse Libraries Using Quantitative High-Throughput Screening; also: nearly all actives have a fitted effect of over 60% in size
# Details: HEK 293 viability, ATP luminescence (CellTiter-Glo), 48-72 h; series mostly up to 115 µM
# How it was run: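 Cytotoxicity was scored by loss of ATP-coupled luminescence (CellTiter-Glo) in HEK 293 cells. Compound treatment ran 48 or 72 hr at 37 degree Celsius, 5% CO2, 95% humidity.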
# Potency is read from the fitted curve at half-maximal effect; tags tell the direction and shape of the fitted curve.
row,SMILES,Potency
1,Cc1ccc(-c2ccccc2CN2CCN(C(=O)c3ccc(Cl)nc3)CC2)cc1Cl,"inconclusive: 50.1 µM [inhibitor, partial curve, poor fit]"
2,Cc1ccc(F)c(OCC(=O)c2ccc3c(c2)N(CCCC(=O)NC2CC2)C(=O)CO3)c1,"inconclusive: 79.4 µM [inhibitor, single point]"
3,O=C(N1CC=C(c2ccc(F)cc2)CC1)C12CNCC1CNC2 (centres undefined),inactive
4,O=C(NCC1CC1)c1nc2sccn2c1Br,inactive
5,O=[N+]([O-])c1cccc(-c2noc([C@@H]3C[C@@H](O)CN3Cc3cccc(OC(F)(F)F)c3)n2)c1,inactive
6,Cn1ncc2c(N[C@@H](Cc3ccccc3)C(N)=O)nc(-c3ccncc3)nc21,active: 31.6 µM
7,COc1cc2c(cc1OC)C(CNC(=O)C1CCCC1)N(C(=O)Nc1cccc(C)c1)CC2 (centres undefined),"inconclusive: 89.1 µM [inhibitor, single point]"
8,Cc1ccccc1C(=O)NC1CCN(c2nccc(Nc3ccccc3F)n2)CC1,active: 20 µM
9,CNC(=O)[C@@H]1C[C@H](Oc2ccccc2)CN1C(=O)Nc1ccccc1,inactive
10,CC1CCc2sc(C(=O)N(C)Cc3cc(-c4ccncc4)no3)cc2C1 (centres undefined),"inconclusive: 50.1 µM [inhibitor, partial curve, poor fit]"
11,N#Cc1cccc(CN2CC[C@@H]3OCC(=O)N(c4ccccc4)[C@H]3CC2)c1,"inconclusive: 100 µM [inhibitor, partial curve, poor fit]"
12,CCCCc1nn(CC(=O)NCc2cccc3[nH]ccc23)c(=O)n1CC,inactive
13,C[S+](=O)([O-])NCCNC(=O)c1cccc(-c2ccc(C(F)(F)F)cc2)c1,"inconclusive: 79.4 µM [inhibitor, partial curve, poor fit]"
14,Cc1ccc(-c2cc3c(ccn3CC3CCN([S+](C)(=O)[O-])CC3)c(N3CCOCC3)n2)cn1,inactive
15,Cc1ccc(Nc2ccnc(N3CCCC3C(=O)N3CCCCC3)n2)cc1 (centres undefined),"inconclusive: 63.1 µM [inhibitor, partial curve, poor fit]"
16,O=C1c2c(nc(CNc3cccc(F)c3)n2Cc2ccccc2)NCCN1CCN1CCCCC1,"inconclusive: 89.1 µM [inhibitor, single point]"
17,COCCCNC(=O)c1ccc2nc(-c3cccc(C)n3)oc2c1,"inconclusive: 100 µM [inhibitor, partial curve]"
18,CSc1ccc(-c2nc(CN3CCOC(CCO)C3)c(C)o2)cc1 (centres undefined),"inconclusive: 89.1 µM [inhibitor, single point]"
19,CCCCS(=O)(=O)N1CCc2nn(CCOC)c(=O)n2CC1,inactive
